Laboratory results published in PubChem BioAssay AID652104 (National Center for Advancing Translational Sciences (NCATS), 2013).
The campaign covered roughly 410,000 compounds. About 7,200 (1.8%) were called active. The shares of active, inactive and inconclusive entries below differ from those in the screen. The call rests on the fitted dose curve; in most records, active means well fitted activation curve with a large enough effect; inconclusive means small, poorly fitted or top-dose-only effect, or another doubt; inactive means no such curve, though single readings can be large or run the other way. No potency is given beside an inconclusive call; the fits are too rough.

assay: qHTS of TDP-43 Inhibitors; conditions: TDP-43 expressing yeast growth rescue, BacTiter-Glo, 24 h; growth rescue (activation): at 46.1 µM (top of the series) unless noted; further: nearly all actives have a fitted effect of over 50% in size; on growth rescue (activation): % of control where 0% means no effect
Method in brief: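 Cell-based yeast growth screen: TDP-43 expression induced in galactose, inoculum OD600=0.02 after raffinose pregrowth to mid-log. Read-out BacTiter-Glo luminescence at 24 hr, 30 deg C; inhibition of toxicity seen as signal increase.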
Potency means the concentration at half of the fitted maximal effect; tags describe the fitted curve by direction and shape.

Row | Compound | Potency | growth rescue (activation)
1 | O=C(CCCSc1nc2ccccc2s1)NCc1ccco1 | inconclusive [activator, partial curve] | –
2 | O=C(C1CCCN(c2ncnc3c2nc2n3CCCCC2)C1)N1CCN(c2ccccc2F)CC1 (stereo not given) | active: 11.2 µM | –
3 | COC(=O)c1ccc(NC(=O)c2cccc(C)c2)cc1 | inconclusive [activator, full curve, poor fit] | –
4 | COC(=O)[C@@]1(Cc2ccc(F)cc2)[C@H]2c3cc(C(=O)N4CCCC4)n(CCF)c3C[C@H]2CN1C(=O)c1ccccc1 | inconclusive [activator, partial curve] | –
5 | Cc1ccc(Nc2nnc(SCC(=O)c3ccc(Br)s3)s2)c(C)c1 | inconclusive [activator, partial curve] | –
6 | C[C@]12c3[nH]c4ccccc4c3CCN1C(=O)C(CC(=O)NCCc1ccccn1)C[C@@H]2C(=O)N1CCOCC1 (stereo not given in full) | inconclusive [activator, partial curve, poor fit] | –
7 | O=[N+]([O-])c1cc(F)c(N2CCCCC2)cc1N1CCOCC1 | inconclusive [activator, single point] | –
8 | CCOC(=O)CSC1=C(C#N)C(c2ccc(Cl)cc2)CC(=O)N1 (stereo not given) | inconclusive [activator, single point] | –
9 | Cc1ccc(S(=O)(=O)N2CCCCC2)cc1NC(=O)CNC(C)c1ccc(Cl)c(Cl)c1 (stereo not given) | inactive | –
10 | Cc1cccc(N2CCN(S(=O)(=O)c3c(C)noc3/C=C/N(C)C)CC2)c1C | inconclusive [activator, single point] | –
11 | CC(C)c1nc(N2CCN(C(=O)c3ccco3)CC2)c(C#N)c2c1COC(C)(C)C2 | inconclusive [activator, single point] | –
12 | COc1ccc(C2=NOC(C(=O)N3CCCc4ccccc43)C2)cc1 (stereo not given) | inconclusive [activator, single point] | –
13 | CCN(CC)CCn1c2ccccc2c(=O)c2c(O)ccc(O)c21 | inconclusive [activator, partial curve] | –
14 | Cc1cc(Cl)n2nc(C)c(-c3ccc(Cl)cc3)c2n1 | inconclusive [activator, single point] | –
15 | COc1cc2c(oc(=O)c3cc(C)cc(OC)c32)c2c(C3OC(C)C(O)C(C)(O)C3O)ccc(O)c12 (stereo not given) | inconclusive [activator, partial curve] | –
16 | CCCc1cnc2c(c1SCC(=O)N1CCC(C)CC1)c(=O)n(C)c(=O)n2C | inconclusive [activator, single point] | –
17 | O=C(NCCc1ccccc1)c1sc2ncccc2c1-n1cccc1 | active: 22.4 µM | –
18 | Cc1nn(Cc2ccccc2Cl)c(C)c1NC(=O)c1cc(C(C)C)on1 | inconclusive [activator, single point] | –
19 | CCOC(=O)c1ccc(NC(=O)Cn2c(=O)cc(C)c3c(C)nn(-c4cccc(F)c4)c32)cc1 | inactive | –
20 | NC(=O)c1ccccc1OCC(=O)N1CCC(Cc2ccccc2)CC1 | inconclusive [activator, partial curve] | –
21 | O=C(CCCN1C(=O)C(c2ccccc2)Oc2cccnc21)Nc1cccc(F)c1 (stereo not given) | inconclusive [activator, partial curve] | –
22 | CCC1(C)Cc2c(sc3nc(SC)[nH]c(=S)c23)CO1 (stereo not given) | inconclusive [activator, single point] | –

Row | Compound | Potency | growth rescue (activation)
23 | Cc1cc(C)c2nc(-c3cccc(Cl)c3)c(C)c(C(=O)N3CCOCC3)c2c1 | inconclusive [activator, single point] | –
24 | CCOc1c2ccoc2nc2c(OC)c(OC)ccc12 | inactive | –
25 | O=C(c1cc(COc2cccc(C(F)(F)F)c2)on1)N1CCC(Oc2cccnc2)CC1 | inconclusive [activator, partial curve, poor fit] | –
26 | Cc1nnc(SCC(=O)c2cc(C)n(-c3ccc4c(c3)OCO4)c2C)s1 | inconclusive [activator, single point] | –
27 | C=CCN=C1S/C(=C/c2cccc([N+](=O)[O-])c2)C(=O)N1CC=C | inconclusive [activator, single point] | –
28 | C#CC(=O)CC1(CN(Cc2ccccc2)C(=O)OC(C)(C)C)CCCCC1 | inconclusive [activator, single point] | –
29 | Cc1nn(-c2ccccc2)c(C)c1/C=C/C(=O)OC(C)C(=O)Nc1ncc(Cl)cc1Cl (stereo not given) | inconclusive [activator, single point] | –
30 | COc1ccc(NC(=O)C[C@H]2C(=O)N(CCc3ccccc3)C[C@@H]2C)cc1 | inconclusive [activator, partial curve] | –
31 | COC(=O)COC(=O)c1ccc(Oc2nc(OC)nc(N(C)C)n2)cc1 | inconclusive [activator, partial curve] | –
32 | CC(=O)N1CCc2cc(CNC(=O)Cc3ccc(F)cc3)ccc21 | inconclusive [activator, partial curve] | –
33 | Cc1cc(Nc2ccc(F)cc2Cl)n2nc(C)nc2n1 | inconclusive [activator, single point] | –
34 | CC(C)(C)C(=O)Cn1c(=O)n(-c2ccc(Cl)cc2)c(=O)c2c3c(sc21)CCCC3 | inactive | –
35 | O=C(Nc1ccc(Cl)cc1)C1Cc2c(-c3ccccc3Oc3ccccc3)ccnc2O1 (stereo not given) | inconclusive [activator, single point] | –
36 | O=C(NCc1ccc2c(c1)OCO2)c1ccc(COc2cc(Cl)ccc2Cl)o1 | inconclusive [activator, single point] | –
37 | C/C(=N\Nc1cc(-c2ccccc2)nc(-c2ccccc2)n1)c1ccc(O)c(C)c1 | active: 15.8 µM | –
38 | Cc1nc2c(-c3ccccc3)c(C)nn2c(C)c1CCC(=O)N1CCN(c2ccc(F)cc2)CC1 | active: 14.1 µM | –
39 | Cc1cccc(N2CCN(CCCNc3ncnc4onc(-c5ccc(Cl)cc5)c34)CC2C)c1 (stereo not given) | inconclusive [activator, partial curve, poor fit] | –
40 | C=CCn1c(C)cc(C(=O)COc2ncnc3sccc23)c1C | inactive | –
41 | COc1ccc(Cl)cc1N(C)C(=O)c1ccc2c(=O)n3c(nc2c1)CCCCC3 | inconclusive [activator, partial curve, poor fit] | –
42 | NC(=O)c1sc2nc3c(c(-c4ccco4)c2c1N)CCCC3 | inconclusive [activator, partial curve] | –
43 | COc1ccc(/C=C/c2ccc3cccc(O)c3n2)cc1Br | inconclusive [activator, full curve, poor fit] | –
44 | Cc1ccc2nc(N3CCN(c4cccc(C(F)(F)F)c4)CC3)c3nnnn3c2c1 | inactive | –

Row | Compound | Potency | growth rescue (activation)
45 | Cc1ccc(C(=O)OCC(=O)NCC2COc3ccccc3O2)cc1 (stereo not given) | inconclusive [activator, partial curve] | –
46 | CCCc1cc(=O)[nH]c2nnc(SC(C)CC)n12 (stereo not given) | inconclusive [activator, single point] | –
47 | COC(=O)c1c(NC(NC(C)=O)C(Cl)(Cl)Cl)sc2c1CCCC2 (stereo not given) | inconclusive [activator, partial curve] | –
48 | O=[N+]([O-])c1ccccc1NCc1c(O)ccc2ccccc12 | inconclusive [activator, partial curve] | –
49 | N#C/C(=C\c1cn(CCOc2ccccc2)c2ccccc12)C(=O)NCC1CCCO1 (stereo not given) | inconclusive [activator, partial curve] | –
50 | CCSc1nc2ccccc2n1C(=O)/C=C/c1ccc(OC)c(OC)c1 | inactive | –
51 | CCOc1ccc(C(=S)NC2CCCCC2)cc1OCC | inconclusive [activator, single point] | –
52 | COC(=O)c1cn(CCOc2ccccc2OC)c2ccccc12 | inconclusive [activator, single point] | –
53 | CCN1CCOC(=O)C1CC(=O)Nc1cc(C)ccc1OC (stereo not given) | – | inconclusive: -91.6% [activator]
54 | Fc1ccc(Sc2cc(Cl)c(-c3ccccc3)nn2)cc1 | active: 15.8 µM | –
55 | Cc1cccc(NC(=O)c2ccc3snnc3c2)c1 | inconclusive [activator, partial curve] | –
56 | CCC1(c2ccccc2)NC(=O)N(CC(=O)Nc2ccc(S(N)(=O)=O)cc2)C1=O (stereo not given) | inconclusive [activator, full curve, poor fit] | –
57 | CCOc1ccccc1CN1CCC(N2CCOCC2)CC1 | inactive | –
58 | Fc1cccc(Cc2c(C3CCCCC3)nc3ccc(Cl)cn23)c1 | inconclusive [activator, full curve, poor fit] | –
59 | c1ccc(Cn2nnc3c(N4CCCCCC4)ncnc32)cc1 | inconclusive [activator, partial curve] | –
60 | CN(Cc1ccc(Cl)cc1Cl)C(=O)c1cc(=O)c2ccccc2o1 | inconclusive [activator, single point] | –
61 | Cc1ccc(C2CCN(C(=O)Nc3ccccc3)C2)cc1 (stereo not given) | active: 10 µM | –
62 | Cc1nc(N2CCCCC2C)c2c(C)c(C(=O)Nc3cccc(C(F)(F)F)c3)sc2n1 (stereo not given) | inconclusive [activator, partial curve] | –
63 | C1=C(c2ccc(-c3ccccc3)cc2)Nc2ncnn2C1c1ccco1 (stereo not given) | inconclusive [activator, partial curve, poor fit] | –
64 | COc1ccc(N(C(=O)c2ccc(OC)c(OC)c2)S(=O)(=O)c2ccc(Cl)cc2)cc1 | inactive | –
65 | CCOC(=O)c1cnc2c(OC)cccc2c1Oc1ccccc1 | inconclusive [activator, partial curve] | –
